From paper PMC4336329 (PLoS ONE, 2015)
Screen size: about 310,000 compounds; about 14,000 (4.5%) showed an effect of 50% or more. The effect is printed as a negative number. The list shows a part of the results.

Target: human ether-à-go-go-related gene (hERG) potassium channel (human, UniProt Q12809)
Experiment: primary screen, population patch clamp on CHO cells stably expressing hERG
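Note: peak tail current of the secondary pulse compared with the same well before compound.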

human ether-à-go-go-related gene (hERG) potassium channel, sequence (Q12809 whole entry, looked up): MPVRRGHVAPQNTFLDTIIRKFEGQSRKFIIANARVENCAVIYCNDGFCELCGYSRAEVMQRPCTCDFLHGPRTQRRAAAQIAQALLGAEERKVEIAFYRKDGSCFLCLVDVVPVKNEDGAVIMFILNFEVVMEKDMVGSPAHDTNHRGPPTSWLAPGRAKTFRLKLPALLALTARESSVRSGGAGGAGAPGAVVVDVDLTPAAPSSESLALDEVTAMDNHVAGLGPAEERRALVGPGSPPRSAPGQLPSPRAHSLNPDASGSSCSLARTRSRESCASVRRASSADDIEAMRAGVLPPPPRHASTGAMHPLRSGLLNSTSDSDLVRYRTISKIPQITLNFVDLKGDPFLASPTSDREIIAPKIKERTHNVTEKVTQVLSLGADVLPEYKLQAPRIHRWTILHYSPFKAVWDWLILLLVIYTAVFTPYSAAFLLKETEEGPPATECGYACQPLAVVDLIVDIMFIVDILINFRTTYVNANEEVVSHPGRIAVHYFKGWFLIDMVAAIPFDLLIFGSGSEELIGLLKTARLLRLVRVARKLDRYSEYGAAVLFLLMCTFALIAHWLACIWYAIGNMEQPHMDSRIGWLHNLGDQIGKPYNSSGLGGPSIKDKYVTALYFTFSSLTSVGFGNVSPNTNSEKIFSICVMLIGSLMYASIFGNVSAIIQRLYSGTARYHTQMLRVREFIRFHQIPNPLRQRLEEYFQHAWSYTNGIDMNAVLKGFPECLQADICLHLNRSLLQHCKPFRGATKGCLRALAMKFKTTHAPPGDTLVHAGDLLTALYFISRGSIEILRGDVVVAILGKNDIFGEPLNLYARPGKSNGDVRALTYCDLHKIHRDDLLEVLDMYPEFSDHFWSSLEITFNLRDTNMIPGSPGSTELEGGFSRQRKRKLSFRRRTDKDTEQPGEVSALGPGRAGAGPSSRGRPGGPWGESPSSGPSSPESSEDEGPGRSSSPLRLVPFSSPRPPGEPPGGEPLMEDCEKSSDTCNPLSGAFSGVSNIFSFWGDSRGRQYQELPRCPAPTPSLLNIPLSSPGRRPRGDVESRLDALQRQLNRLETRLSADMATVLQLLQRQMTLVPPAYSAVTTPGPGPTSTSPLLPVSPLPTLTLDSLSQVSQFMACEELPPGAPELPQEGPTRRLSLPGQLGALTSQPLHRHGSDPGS

SMILES	hERG current change (%, negative = inhibition) at 10uM [%]
COc1ccc(NC(=O)C(C)N2C(=O)c3ccccc3C2=O)cc1S(=O)(=O)N1CCOCC1 (stereo not shown)	2.26
c1ccc(SCCOCCn2cncn2)cc1	9.68
COc1cccc(CN(C)Cc2nc(Cc3ccccc3Cl)no2)c1	17.7
Cn1c(SCc2c(Cl)cccc2Cl)nnc1-c1ccc2nonc2c1	-55.1
O=C(CCS(=O)(=O)c1ccccc1)OCC(=O)N1CCN(S(=O)(=O)c2ccc(Cl)cc2)CC1	4.76
CC(=O)Nc1ccc2[nH]c(C)cc(=O)c2c1	5.14
Cc1ccnc(N/C=C(\C#N)c2nc(-c3cccc(Br)c3)cs2)c1	-2.02
O=c1[nH]c(NCCO)nc2c1C1(CCCC1)Cc1ccccc1-2	5.92
CC(=O)Nc1cccc(Oc2ccc([N+](=O)[O-])cc2Cl)c1	-2.84
Clc1ccc(-n2nnnc2-c2ccno2)cc1	2.67
CCCCOc1ccc(Cl)cc1CSc1n[nH]c(C)n1	-2.72
Cc1ccc(S(=O)(=O)N(CC(=O)NCCSC2CCCCC2)c2ccccc2F)cc1	5.8
CC1(C(=O)N/N=C/c2ccccc2)CC1(Cl)Cl (stereo not shown)	-3.14
COc1ccc(NC(=S)N2CCN(S(=O)(=O)c3ccccc3)CC2)cc1	-9.13
Cc1ccccc1NC(=O)NC1(C(=O)NCc2ccco2)CCCCC1	0.00838
C=CCn1c(-c2ccc(OC)cc2)nc2nc3ccccc3nc21	8.14
O=C1NC(=O)N(c2ccc3c(c2)OCO3)C(=O)/C1=C\c1ccsc1	14.9
Cc1ccc(C2=NN(C(=O)CSc3nc(N)cc(N)n3)C(c3ccco3)C2)cc1 (stereo not shown)	6.66
Nn1c(Cc2cccc3ccccc23)nnc1SCC(=O)N1CC(=O)Nc2ccccc21	7.01
COc1cccc(NC(=O)NNS(=O)(=O)c2ccc(OC)cc2OC)c1	-3

SMILES	hERG current change (%, negative = inhibition) at 10uM [%]
Cc1ccc(S(=O)(=O)/N=C(\c2ccc(F)cc2)n2c(C)nc3ccccc32)cc1	11.9
COC(=O)c1ccc2c(=O)n(CCCCCC(=O)NCc3ccc4c(c3)OCO4)c(=O)[nH]c2c1	-31.7
COc1ccnc2c1c(=O)n(Cc1ccc(Cl)cc1Cl)c(=O)n2C	9.73
CC(c1ccccc1)c1nnc(NC(=O)Nc2ccccc2)s1 (stereo not shown)	2.63
COc1ccccc1N1CCN(C(=O)c2cccc(C(=O)N3CCN(c4ccccc4OC)CC3)c2)CC1	-3.62
Cc1ccc(NC(=O)c2cc3c(=O)oc4ccc(C)cc4c3s2)nc1	11
O=[N+]([O-])c1ccc(N2CCNCC2)cc1Sc1nc2ccccc2[nH]1	-27
Cc1c(S(=O)(=O)NC2CCCCCC2)c(=O)n(C)c(=O)n1C	-21.5
CCn1cc(C(=O)NCC2CCCO2)c2cc(OC)c(OC)cc2c1=O (stereo not shown)	19.4
Cl.Clc1cccc(CNCCCSc2ncccn2)c1Cl	4.57
COc1ccc(CC(=O)Nc2ccccc2-c2ccccc2)cc1OC	-0.946
CC1CCC2(CC1)NC(=O)N(NC(=O)CSc1nnc(NC3CC3)s1)C2=O (stereo not shown)	1.89
O=C(NCc1ccc(F)cc1)c1c2c(nc3ccccc13)CCC2	-21.1
Cc1ccc(-c2nnn(CC(=O)N(Cc3cccs3)C(C(=O)NC(C)(C)C)c3ccco3)n2)o1 (stereo not shown)	14.4
Cc1ccc(S(=O)(=O)N2CCOCC2)cc1NC(=O)CSc1ccccn1	9.86
Cn1c(-c2ccccc2)c(CCO)c2ccccc21	1.64
CCC(C)C(NC(=O)C1CCC(C)CC1)C(=O)NC(C(=O)OC)C(C)C (stereo not shown)	-0.903
O=C(/C=C/c1ccccc1)NC(=S)Nc1ccc(N2CCOCC2)c(Cl)c1	18.9
O=C(Nc1nnc(C2CC2)s1)C1Cc2ccccc2CN1C(=O)c1ccco1 (stereo not shown)	-5.51
O=C(Nc1cccc([N+](=O)[O-])c1)c1[nH]ncc1Cl	-31.2

SMILES	hERG current change (%, negative = inhibition) at 10uM [%]
CC(=O)N1CCc2c(sc(NC(=O)c3ccc(S(=O)(=O)N(C)C)cc3)c2C#N)C1	11.1
O=C(O)c1ccc(N2CCS(=O)(=O)CC2)cc1	34.2
CCOc1ccc(S(=O)(=O)N2CCN(C(=O)C3CSC4(C)CCC(=O)N34)CC2)cc1 (stereo not shown)	-6.06
Cn1cnc([N+](=O)[O-])c1Oc1cccc2ccccc12	-3.5
CCn1c(O)c(C=NCc2cccs2)c(=O)[nH]c1=O	-6.15
COc1cccc(CNn2c(-c3cccc(C)c3)nc3ccccc3c2=O)c1	-9.77
CCOC(=O)N1CCN(S(=O)(=O)c2ccc3c(c2)CC(C)N3C(C)=O)CC1 (stereo not shown)	8.43
Cc1ccc(C)c(N(CC(N)=O)S(C)(=O)=O)c1	1.35
COc1cccc2c1cc1c(=O)n(CC(=O)NCCCN3CCCCC3)nc(C)n12	18.7
O=C(NC(=S)NC1CCCc2ccccc21)c1ccc(F)cc1 (stereo not shown)	11
O=[N+]([O-])/C=C1\CCCCCN1	7.65
O=C1CCC(=O)N1CCSC(=S)N1CCOCC1	8.78
O=C1c2cccnc2C(Nc2ccc(Br)cc2)N1Cc1cccs1 (stereo not shown)	14.2
O=C1CCC(C(=O)Nc2ccc([N+](=O)[O-])cc2)N1 (stereo not shown)	-2.22
CCOCCCNC(=O)C(NC(=O)CNC(C)=O)c1ccc(Cl)cc1 (stereo not shown)	9.12
CC1CCN=C(N)S1.Cl (stereo not shown)	4.14
CN(CC(=O)Nc1ccc(OC(F)(F)F)cc1)S(=O)(=O)c1cnc[nH]1	4.06
O=c1[nH]c2cc(Br)cnc2nc1/C=C(\O)c1ccc(F)cc1	10.9
